Assay results published in patent US20100184190A1, “Influencing viral lipid constituents” (priority 2006, published 2010).

Test system: A/Sydney virus envelope lipids
Assay: FTIR analysis of treated virion membranes

| Substance | change of membrane lipid order / melting groups (FTIR) |
| --- | --- |
| cyclodextrin | significant increases in ordered high melting membrane lipid groups |
| sphingomyelinase | significant increases in ordered high melting membrane lipid groups |
